Screen size: about 410,000 compounds; about 6,400 (1.6%) were called active. Inconclusive results, whose numbers are uncertain, are shown with a selection of clear calls. The call rests on the fitted dose curve; in most records, active means well fitted inhibition curve with a large enough effect; inconclusive means small, poorly fitted or top-dose-only effect; inactive means no such curve, though single readings can be large or run the other way. Potencies of inconclusive entries are left out as doubtful fits.
What follows are molecules tested against Glucagon-like peptide 1 receptor (Homo sapiens) (UniProt P43220) (assay: qHTS of GLP-1 Receptor Inverse Agonists (Inhibition Mode)). Settings: HEK293 GLP-1R CRE-luciferase, luminescence, 24 h, GLP-1R form is constitutively active; series mostly up to 38.3 µM.
UniProt P43220, sequence (P43220 whole entry, looked up): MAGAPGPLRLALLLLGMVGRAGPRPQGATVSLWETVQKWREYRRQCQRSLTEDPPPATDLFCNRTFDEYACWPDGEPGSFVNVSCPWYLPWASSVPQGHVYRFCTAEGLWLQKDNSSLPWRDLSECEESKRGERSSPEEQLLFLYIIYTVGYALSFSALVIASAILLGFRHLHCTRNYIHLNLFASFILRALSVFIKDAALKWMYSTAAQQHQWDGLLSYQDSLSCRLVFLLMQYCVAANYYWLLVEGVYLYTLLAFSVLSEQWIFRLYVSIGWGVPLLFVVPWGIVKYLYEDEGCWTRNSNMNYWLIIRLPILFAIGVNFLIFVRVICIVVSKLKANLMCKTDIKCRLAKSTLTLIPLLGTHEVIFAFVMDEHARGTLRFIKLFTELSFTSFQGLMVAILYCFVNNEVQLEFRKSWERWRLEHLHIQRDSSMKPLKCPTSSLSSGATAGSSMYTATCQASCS
Outline: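 Cells are plated, allowed 12 hours at 37 deg C, then treated with compounds for 24 hr before luciferase detection reagent is added and luminescence is read after 12 min at room temperature. The HEK293 line carries constitutively active GLP-1R with a cAMP-responsive reporter.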
In the case of CN(CC(=O)Nc1ccc(F)c(F)c1F)C(=O)CCCc1nc2ccccc2c(=O)[nH]1, the Potency is reported as inconclusive [inhibitor, partial curve].
CCOC(=O)C1=CCN(S(=O)(=O)c2ccc(C)cc2)C1c1ccc(Br)cc1 (stereo not drawn) was tested, and the Potency was inconclusive [inhibitor, single point].
In the case of COc1cccc(-c2cnc(C(O)c3cccc(CN4CCCCC4)c3)[nH]2)c1 (stereo not drawn), the Potency is reported as “inactive”.
In the case of CC(C)c1ccc(CN2CCC2(C)C(=O)Nc2cnc3ccccc3c2)cc1 (stereo not drawn), the Potency is reported as inconclusive [inhibitor, partial curve, poor fit].
For CC(=O)c1ccc(NS(=O)(=O)c2cc3[nH]c(=O)c(=O)[nH]c3cc2C)cc1, the Potency was “inactive”.
For CCCC(=O)Nc1cc(C)c(NC(=O)c2ccco2)cn1, the Potency was “inactive”.
In the case of COc1ccc(N2CCN(C(=O)Oc3ccc([N+](=O)[O-])cc3)CC2)cc1, the Potency is reported as inconclusive [inhibitor, single point].
In the case of CC(C(=O)NCc1ccc(F)cc1)n1ccc2cc(S(=O)(=O)N3CCCC3)ccc21 (stereo not drawn), the Potency is reported as inconclusive [inhibitor, partial curve, poor fit].
With CC(NC1c2ccccc2-c2ccccc21)c1ccccc1 (stereo not drawn) the Potency was inconclusive [inhibitor, partial curve, poor fit].
For CSc1ccc(CN2CCC(n3nccc3NC(=O)c3ccccc3C)CC2)cc1, the Potency was inconclusive [inhibitor, single point].
For CCOC(=O)C1(Cc2ccccc2)C(=O)N(CCCN(C)C)c2ccccc21 (stereo not drawn), the Potency was inconclusive [inhibitor, full curve, poor fit].
With O=S1(=O)C=C(SCc2cccc(Cl)c2)Nc2ccccc21 the Potency was “inactive”.
For COc1cc(CN(C)CC2CCCN(CCc3ccccc3F)C2)cc(Cl)c1OC (stereo not drawn), the Potency was inconclusive [inhibitor, single point].
For C[C@@H]1CN([C@@H](C)CO)C(=O)c2c(c3ccccc3n2C)-c2ccccc2CO[C@H]1CN(C)C(=O)[C@H](Cc1ccccc1)N(C)C, the Potency was inconclusive [inhibitor, single point].
In the case of O=C(NC1CCCN(Cc2ccc(Cl)cc2)C1)c1c(F)ccc(F)c1F (stereo not drawn), the Potency is reported as inconclusive [inhibitor, partial curve, poor fit].
In the case of COc1cc(S(=O)(=O)Nc2ccc(Br)cc2)ccc1N, the Potency is reported as inconclusive [inhibitor, single point].
In the case of COc1ccccc1N1CCN(C(=O)/C=C/c2ccccc2)CC1, the Potency is reported as inconclusive [inhibitor, partial curve, poor fit].
CCN1CC2=C(OC(N)=C(C#N)C2c2ccccc2)/C(=C\c2ccccc2)C1 (stereo not drawn) was tested, and the Potency was inconclusive [inhibitor, partial curve].
With Cc1ccc(CNC(=O)CN(c2ccc(C(C)C)cc2)S(=O)(=O)c2c(C)n[nH]c2C)cc1 the Potency was inconclusive [inhibitor, single point].
In the case of COc1ccc(Cn2ccnc2SCC(=O)Nc2ccc(C)cc2C)cc1, the Potency is reported as “inactive”.
With COc1cc(C(O)c2nc(-c3csc4ccccc34)cs2)ccc1F (stereo not drawn) the Potency was inconclusive [inhibitor, single point].
In the case of C=CCN1CC2(c3ccccc3)CN(CC=C)CC(c3ccccc3)(C1)C2=O, the Potency is reported as inconclusive [inhibitor, single point].
For O=[N+]([O-])c1ccc(-c2nc(NCC3CCCO3)c3ccccc3n2)cc1 (stereo not drawn), the Potency was inconclusive [inhibitor, single point].
COc1ccc(-c2[nH]ncc2CN(CCO)CC23CC4CC(CC(C4)C2)C3)c(OC)c1 was tested, and the Potency was inconclusive [inhibitor, partial curve, poor fit].
In the case of COCCn1c(NC(=S)NC(=O)C23CC4CC(CC(C4)C2)C3)cc(=O)[nH]c1=O, the Potency is reported as inconclusive [inhibitor, single point].
For CC1CCN(CCOc2ccc(OCc3ccccc3)cc2)CC1, the Potency was inconclusive [inhibitor, single point].
In the case of CCc1[nH]nc(C(=O)N2CCCC(C(=O)c3cccc(OC(C)C)c3)C2)c1C (stereo not drawn), the Potency is reported as inconclusive [inhibitor, partial curve, poor fit].
In the case of COc1ccc(C2SCC(=O)N2c2nc3ccccc3s2)cc1 (stereo not drawn), the Potency is reported as inconclusive [inhibitor, full curve].
CCOC(=O)C1=C[C@@H](C(C)C)N(S(=O)(=O)c2ccc([N+](=O)[O-])cc2)[C@H]1c1ccccc1 was tested, and the Potency was inconclusive [inhibitor, partial curve].
For c1ccc(-c2ccc(CN3CCN(c4ncccn4)CC3)cc2)cc1, the Potency was inconclusive [inhibitor, single point].
For CC(C)c1nc2cc3ccccc3cc2[nH]1, the Potency was inconclusive [inhibitor, single point].
With Fc1ccccc1Cc1noc(CN2CCN(Cc3ccc4c(c3)OCO4)CC2)n1 the Potency was inconclusive [inhibitor, partial curve, poor fit].
For CCN(CC(=O)Nc1ccccc1OC)C(=O)CN1C(=O)NC(C)(c2ccc3ccccc3c2)C1=O (stereo not drawn), the Potency was “inactive”.
COc1cccc(C(=O)/C=C/c2ccc(N3CCCCC3)c([N+](=O)[O-])c2)c1 was tested, and the Potency was inconclusive [inhibitor, partial curve, poor fit].
Cc1cc(C)c2c(=O)c3c(oc2c1)C(=O)N(Cc1ccc(F)cc1)C3c1cccc(O)c1 (stereo not drawn) was tested, and the Potency was inconclusive [inhibitor, partial curve, poor fit].
CCn1c(N)[n+](CC(=O)Nc2ccc(SC(F)F)cc2)c2ccccc21 was tested, and the Potency was inconclusive [inhibitor, partial curve, poor fit].
Cc1cc2oc(=O)cc(CN3CCCCC3C)c2cc1C (stereo not drawn) was tested, and the Potency was inconclusive [inhibitor, partial curve].
CCNc1nc2c(c(=O)[nH]c(=O)n2C)n1CC(O)COc1ccc(Cl)cc1Cl (stereo not drawn) was tested, and the Potency was inconclusive [inhibitor, full curve, poor fit].
With O=C(CCS(=O)(=O)c1cccs1)Nc1ccc(C(=O)Nc2cccc(Cl)c2)cc1 the Potency was inconclusive [inhibitor, single point].
With COc1cc(OC)cc(C(=O)N2CCC(c3ccncc3)CC2)c1 the Potency was “inactive”.
With COc1ccc(NC(=O)[C@@H]2CC=C[C@@H]3CCN(Cc4ccc(Cl)c(Cl)c4)C(=O)[C@@H]32)cc1 the Potency was inconclusive [inhibitor, single point].
O=C(Cc1ccccc1)Nc1c(C(=O)N2CCN(c3ccc(F)cc3)CC2)oc2ccccc12 was tested, and the Potency was inconclusive [inhibitor, single point].
For COc1ccc(CNc2ccc3cc(S(=O)(=O)N4CCCCC4)ccc3n2)cc1, the Potency was inconclusive [inhibitor, single point].
Cc1ccc(C)c(NC(=O)CN2C(=O)CSc3nc(C)cc(C)c32)c1 was tested, and the Potency was “inactive”.
In the case of Cc1ccc(-c2cc(NC(=O)C(C)Oc3ccc(C)c(C)c3)on2)cc1 (stereo not drawn), the Potency is reported as inconclusive [inhibitor, single point].
CC(OC(=O)C1CCN(c2ccc(C(F)(F)F)cn2)CC1)C(=O)c1ccccc1 (stereo not drawn) was tested, and the Potency was inconclusive [inhibitor, single point].
With CCn1cc(C(=O)O)c(=O)c2cnc(N3CCN(C(=S)NC(=O)c4ccccc4)CC3)nc21 the Potency was “inactive”.
CCn1ccnc1CNCc1cn(-c2cc(C)ccc2C)nc1-c1ccccc1 was tested, and the Potency was inconclusive [inhibitor, single point].
COc1ccc2cc(C(=O)NCCc3ccccc3)[nH]c2c1 was tested, and the Potency was “inactive”.
With Cc1ccccc1NC(=O)Nc1ccccc1N1CCCCC1 the Potency was inconclusive [inhibitor, single point].
In the case of CC(C)C(NS(=O)(=O)c1ccccc1)C(=O)OCc1cc([N+](=O)[O-])cc2c1OCOC2 (stereo not drawn), the Potency is reported as “inactive”.
With CCOc1ccc(C(=O)Nc2nnc(S(=O)(=O)N(CC)c3ccccc3C)s2)cc1 the Potency was inconclusive [inhibitor, partial curve].
Cc1cc(C)cc(NC(=O)C2CCC(CNC(=O)[C@@H]3Cc4ccccc4CN3)CC2)c1 (stereo partly drawn) was tested, and the Potency was inconclusive [inhibitor, single point].
In the case of CC1CCN(C(=O)CN2CCSc3ccccc32)CC1, the Potency is reported as “inactive”.
With CSc1nccc(Nc2ccccc2)c1C#N the Potency was “inactive”.
In the case of Cc1ccc(C(OCC(O)CN2CCCCC2)c2ccccc2)cc1 (stereo not drawn), the Potency is reported as inconclusive [inhibitor, partial curve, poor fit].
With COc1ccc(-c2cc3nc(-c4ccccc4)cc(N4CCC5(CC4)OCCO5)n3n2)cc1 the Potency was “inactive”.
For COC(=O)c1sc2cccc(F)c2c1S(=O)(=O)N1CCN(c2ccccc2OC)CC1, the Potency was inconclusive [inhibitor, partial curve, poor fit].
In the case of O=C(OCc1ccccc1C(F)(F)F)c1cc([N+](=O)[O-])ccc1N1CCOCC1, the Potency is reported as inconclusive [inhibitor, single point].
With Cc1ccc(Nc2nc(Cl)nc(NC(C)(C)C)n2)cc1 the Potency was inconclusive [inhibitor, single point].
In the case of CS(=O)(=O)N(CC(=O)NCc1ccccc1Cl)Cc1ccccc1, the Potency is reported as inconclusive [inhibitor, partial curve].
Cc1cccc(N2CCN(C(=O)NC3CCCCC3)CC2C)c1 (stereo not drawn) was tested, and the Potency was inconclusive [inhibitor, partial curve].
Cc1onc(-c2ccccc2Cl)c1C(=O)Nc1nnc(-c2ccc(Cl)cc2Cl)s1 was tested, and the Potency was “inactive”.
Further: nearly all actives have a fitted effect of over 55% in size.
Potency means the concentration at half of the fitted maximal effect; tags describe the fitted curve by direction and shape.
